Reference: PubChem BioAssay AID1508623 (National Center for Advancing Translational Sciences (NCATS), 2021)
About 450 (0.94%) of roughly 48,000 compounds were called active. About 19% were inconclusive and are not listed. The call rests on the fitted dose curve; in most records, active means well fitted inhibition curve with a large enough effect; inconclusive means small, poorly fitted or top-dose-only effect; inactive means no such curve, though single readings can be large or run the other way. This is one part of the list.

Assay: Primary qHTS for Identification of Small Molecule Inhibitors of Huntingtin Promoter Activity; further: nearly all actives have a fitted effect of over 50% in size
Details: HEK293 HTT promoter firefly luciferase reporter (activity 0% = vehicle and -100% = no light), 24 h; series mostly up to 57.5 µM; activity change, negative = inhibition: at the top concentration
Procedure, shortened: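 Firefly luciferase readout (Dual-Glo, 10 min RT) after 24 h, 37 °C compound exposure (final up to 57.5 uM) of HEK293 reporter cells cultured 24 h beforehand; PTC124 at 50 uM final as control inhibitor; activity scaled vehicle 0%, zero RLU -100%.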

Activity change, negative = inhibition, inactive:
CCOc1ccccc1N1CCN(S(=O)(=O)c2ccc(C3CCCCC3)cc2)CC1 -13%, COc1cccc(-n2c(SCc3ccc(F)cc3)nc3c([nH]c4ccccc43)c2=O)c1 -29%, Cc1ccc2nc(-c3ccc(Cl)s3)c(Nc3ccc4c(c3)OCCO4)n2c1 41.3%, COC(=O)c1ccc(NC(=O)CN(C)S(=O)(=O)c2ccc(Br)s2)cc1 -2.95%, COc1ccc(Cn2ccnc2SCC(=O)Nc2nnc(C)s2)cc1 -23.7%, Cc1nn2c(C)c(C(=O)NCc3ccc(OC(C)C)cc3)cnc2c1-c1ccc(F)cc1 -18.3%, CCN(CCCNC(=O)c1nn(-c2ccc(C)cc2)c(=O)c2c1c1ccccc1n2C)c1cccc(C)c1 -4.78%, COc1cccc(CNC(=O)CN2C(=O)COc3ccc(S(=O)(=O)N4CCOCC4)cc32)c1 -3.24%, Cc1ccc(CNC(=O)c2ccc(N3CCCC3)c(NC(=O)Nc3ccc(F)c(Cl)c3)c2)cc1 -29.2%, O=C(O)Cn1c(C(=O)Nc2nc(-c3ccccc3Cl)cs2)cc2ccccc21 4.68%, Cc1ccc2c(c1)-c1c(c(C(=O)N3CCN(c4cc(C)ccc4C)CC3)nn1C)CS2 -10.9%, COc1ccc(NC(=O)Cn2c(=O)c3ccccc3n3nncc23)c(OC)c1 -15.7%, CC(=O)c1c(C)oc2c1cc(NS(=O)(=O)c1ccc(C(C)(C)C)cc1)c1ccccc12 -17%, Cc1ccc(CNC(=O)C(C)n2nc(C)c3sc4ccccc4c3c2=O)cc1 (stereo not given) -12.6%, Cc1cc(C)c(NC(=O)Cn2c(=O)n(Cc3ccc(C(=O)NCc4ccc5c(c4)OCO5)cc3)c(=O)c3ccccc32)c(C)c1 -2.92%, COc1ccc(NC(=O)c2cc(S(=O)(=O)N3CCCC3)ccc2OC)cc1 -10.9%, CC(C)Cc1nn2c(=O)cc(COC(=O)c3ccc(NC(=O)C4CCCCC4)cc3)nc2s1 -7.57%, CCOc1ccc(C(=O)NCC(c2cccs2)S(=O)(=O)c2ccccc2)cc1 (stereo not given) -18.6%, COc1ccc(Nc2nc3ccc(Cl)cc3nc2-n2nc(C)cc2C)cc1 -14.6%, Cc1cccc(C)c1NC(=O)c1ccccc1C(=O)O 6.77%, CCOc1ccc(NC(=O)c2cc(C)nc3c2c(C)nn3-c2ccc(C)cc2)cc1 5.48%, Cc1cccc(C(=O)N2CCc3cc(CNC(=O)CSc4ccccc4)ccc32)c1 -22.2%, COc1ccccc1CNC(=O)c1cc2c(s1)-c1ccc(Cl)cc1SC2 17%, Cc1ccccc1CNC(=O)CSc1nnc(C)c2c(C)n(-c3ccccc3)nc12 -14.9%, O=C(COc1ccc(Cl)cc1)Nc1nnc(S(=O)(=O)N2CCCCCC2)s1 -15.6%, CCOc1cccc(CC(=O)N2CCc3c([nH]c4ccc(OC)cc34)C2c2ccc(F)cc2)c1OCC (stereo not given) -20.8%, CCCCOc1ccc(C2C(C(=O)Nc3ccccc3OC)=C(C)Nc3nnnn32)cc1OC (stereo not given) -16.1% [at 11.5 µM], Cc1ccc(S(=O)(=O)n2nc(C)c(S(=O)(=O)N3CCCCCC3)c2C)cc1C -3.63%, Cc1ccn2c(Nc3ccc4c(c3)OCCO4)c(-c3ccccc3O)nc2c1 -7.66%, CCN(CC)CCCNC(=O)CCC(=O)NNc1nc2ccccc2c2nc(C)nn12 -4.06%, COc1cc2c(cc1OC)[C@@H]1CC(=O)[C@@H](CC(C)C)CN1CC2 7.17%, Cc1cc(NC(=O)Nc2nnc(N3CCCCCC3)s2)ccc1Br 2.3%, Cc1ccc(CNC(=O)c2ccc(Nc3nc4ccccc4n4nnnc34)cc2)cc1 26.3%, Cc1ccc(-c2nn(-c3ccccc3)c3c2cnc2ccccc23)cc1C -12.6%, COc1ccc(OC)c(-c2noc(N3CCN(c4ccc(Cl)cc4)CC3)n2)c1 -20.4%, Cc1ccc(S(=O)(=O)N(CCc2ccccc2)CC(=O)Nc2ccccc2C)cc1 -33.9%, Cn1cnc(S(=O)(=O)N2CCCC(C(=O)NCc3ccc(F)cc3)C2)c1 (stereo not given) -14.5%, CCOc1ccc(NC(=O)C(=O)NCCc2csc(-c3ccc(C(F)(F)F)cc3)n2)cc1 -1.78%, NNC(=O)CP(=O)(c1ccccc1)c1ccccc1 -6.82%, Cc1cc(C)cc(NS(=O)(=O)c2ccc3[nH]cc(C(=O)NCCc4ccccc4)c(=O)c3c2)c1 -13.7%, Cc1nn2c(=O)cc(COC(=O)c3ccccc3NC(=O)c3cccs3)nc2s1 -21.8%, CC(C)NC(=O)c1ccc2c(c1)N(Cc1cccc(Cl)c1)C(=O)c1ccccc1S2=O (stereo not given) -13.9%, COc1ccc(NC(=O)CN2CCN(Cc3ccccc3Cl)S2(=O)=O)cc1Cl -33.1%, COC(=O)c1sc2c(c1C)c(=O)n(-c1ccccc1)c(=O)n2CC(=O)Nc1cccc(C)c1 -5.84%, CN1CCN(Cc2c(O)ccc3cc(-c4ccc(Cl)cc4)c(=O)oc23)CC1 -0.649%, COc1cc(OC)c(NC(=O)N2CCC(CN3CCOCC3)CC2)cc1Cl -8.1%, CCc1cccc(NC(=O)CCc2c(C)nc3c(-c4ccccc4)c(C)nn3c2C)c1 -15.4%, CCN(C(=O)Cn1c(=O)oc2cc(S(=O)(=O)N3CCCCC3)ccc21)c1ccccc1 -4.65%, COc1cccc(CNC(=O)c2c(C)oc3ncnc(N4CCOCC4)c23)c1 -8.09%, COc1ccc(N2CCN(C(=O)C3Cc4ccccc4N3C(C)=O)CC2)cc1 (stereo not given) -27.7%, Cc1cc(C)cc(N2CCn3c2nc2c3c(=O)n(C/C=C/c3ccccc3)c(=O)n2C)c1 0.204%, CCN(CC)CCCC(C)Nc1ccnc2cc(Cl)ccc12 (stereo not given), CCOc1cc(CNC(=O)C2CCN(c3nc4ccccc4[nH]3)CC2)cc(OCC)c1OCC -8.46%, Cc1ccc(C)c(NC(=O)CCOc2ccccc2)c1 13%, CS(=O)(=O)c1ccc([C@@H](O)[C@@H](CF)NC(=O)C(Cl)Cl)cc1 -11%, Cc1ccc2nc(-c3ccc(F)cc3)c(NC(C)(C)CC(C)(C)C)n2c1 -0.295%, Cc1c(Cl)cccc1NC(=O)CSc1ccc(-c2ccccn2)nn1 -13.4%, O=C(Cn1c(=O)n(-c2ccc(Cl)cc2)c(=O)c2c3c(sc21)CCCCC3)Nc1cccc(Cl)c1 -15.6%, O=C(NCc1cccc(Cl)c1)c1cc2c(s1)-c1ccccc1SC2 -21.3%, Cc1ccc2cccc(NC(=O)c3cccc4c(Br)cccc34)c2n1 -3.02%, Cc1cc(C)c2nc(N3CCCC(C(=O)NCc4ccccc4F)C3)sc2c1 (stereo not given) 18.2%, CCn1c(=O)n(-c2ccc3c(c2)OCO3)c2nc(-c3cccc(OC)c3OC)nc(C(N)=O)c21 -4.8%, CCCn1cc(S(=O)(=O)c2ccc(C)c(C)c2)c(=O)c2cc(F)c(N3CCC(C)CC3)cc21 1.12%, COc1ccc(N2CCN(C(=O)c3ccc4c(c3)N(Cc3cccc(Cl)c3)C(=O)c3ccccc3S4(=O)=O)CC2)cc1 -8.78%, CC(C)OCCCNC(=O)Cc1ccc(NC(=O)N2CCCCc3ccccc32)cc1 -14.9%, CCc1ccccc1NC(=O)Cn1c(=O)n(-c2cccc(C)c2)c(=O)c2c1c1cc(OC)ccc1n2C 1.73%, CCOc1ccccc1N(C)C(=O)c1cc2c(s1)-c1ccccc1OC2 -28.4%, CCOC(=O)CC(NC(=O)c1cc2c(=O)n3cccc(C)c3nc2s1)c1ccc(OCC)c(OC)c1 (stereo not given) 5.88%, Cc1ccc(NC(=O)Cn2c(=O)n(CC(=O)NCCc3ccccc3)c(=O)c3ccccc32)cc1C -2.31%, CCCCc1nc(SCC(=O)Nc2ccc(S(N)(=O)=O)cc2)n[nH]1 -3.42%, COc1cccc(NC(=O)C2CCN(S(=O)(=O)c3c(C)noc3C)CC2)c1 -4.9%, Cc1ccc(C(=O)COC(=O)c2cc(-c3cccs3)nc3ccccc23)cc1 19.2%, Cc1ccc(S(=O)(=O)c2cn(CC(=O)Nc3ccc(F)cc3)c3cc4c(cc3c2=O)OCO4)cc1 -23.9%, CCc1nc2ccccc2n2c(-c3ccccc3)c3c(=O)n(C)c(=O)n(C)c3c12 -8.78%, COc1ccc(-n2c(=O)c3c4c(sc3n(Cc3ccc(C)cc3C)c2=O)CCC4)c(OC)c1 -16.5%, CCC(C(=O)Nc1ccc(C(C)=O)cc1)n1cnc2nc3c(cc2c1=O)CCCC3 (stereo not given) -14.7%, COc1ccc(OC)c(CNC(=O)Cn2ncc3c([nH]c4ccc(C)cc43)c2=O)c1 10%, COc1cc(C(CC(=O)NCc2ccccc2)N2Cc3ccccc3C2=O)cc(OC)c1OC (stereo not given) -13.5%, CC1=C(C(=O)Nc2cc(Cl)ccc2C)C2(CCCCC2)OC1=O -16.9%, Cc1cc(C)cc(NC(=O)CCc2nnc3n(C)c(=O)c4sccc4n23)c1 -1.25%, Cc1cc(C)n2nc(CNC(=O)c3ccccc3Cl)nc2n1 14.4%, CCOc1ccc(NC(=O)C2CCN(c3nc4ccccc4[nH]3)CC2)cc1 1.99%, CCSc1ccc(C(=O)Nc2ccc(-c3nc4ccc(C)cc4s3)cc2)cc1 -7.71%, CCC(CC)C(=O)OCc1cc(=O)n2nc(C3CCCCC3)sc2n1 -2.49%, CC(C)(C)OC(=O)N1CCC(c2c(C(=O)NCCc3ccsc3)cnn2-c2ccccc2Cl)CC1 -8.46%, COc1ccc(N2CC(NC(=O)COc3ccc(F)cc3)CC2=O)cc1OC (stereo not given) -8.19%, CCOCCn1c(C2CCN(CCc3ccc(C(C)(C)C(=O)O)cc3)CC2)nc2ccccc21 -0.523%, CCOC(=O)CC(NC(=O)c1cc2cc(Br)cc(OC)c2oc1=O)c1ccc(OC)cc1 (stereo not given) -9.68%, CCOC(=O)C(=O)NCC(c1cccnc1)N1CCN(c2ccccc2)CC1 (stereo not given) -6.2%, CCC1CN(C(=O)NCc2ccccc2)c2cc(Cl)ccc2O1 (stereo not given) -15.7%, CCOC(=O)c1ccc(NC(=O)CSc2ccc(-c3ccccn3)nn2)cc1 -28.7%, CCN(CC)c1cc(C)c2cc(NC(=O)c3ccccc3Cl)ccc2n1 -12.6%, COc1ccc(S(=O)(=O)NCCc2nnc3ccc(SCC(=O)Nc4cc(C)cc(C)c4)nn23)cc1 -11.7%, Cn1c(=O)n(C)c2cc(N3CCOCC3)c(NC(=O)c3ccc(Cl)cc3)cc21 10.2%, O=C(NCc1ccc2c(c1)CCN2C(=O)c1ccncc1)c1ccccc1Cl -6.96%
